Measurements: PMC4336329 (PLoS ONE, 2015)
Screen size: about 310,000 compounds; about 14,000 (4.5%) showed an effect of 50% or more. Effects have a minus sign here. The list shows a part of the results.

The compounds below were run against human ether-à-go-go-related gene (hERG) potassium channel (human, UniProt Q12809) (assay: primary screen, population patch clamp on CHO cells stably expressing hERG).
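Further: peak tail current of the secondary pulse compared with the same well before compound.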

Sequence of human ether-à-go-go-related gene (hERG) potassium channel (Q12809 whole entry, looked up): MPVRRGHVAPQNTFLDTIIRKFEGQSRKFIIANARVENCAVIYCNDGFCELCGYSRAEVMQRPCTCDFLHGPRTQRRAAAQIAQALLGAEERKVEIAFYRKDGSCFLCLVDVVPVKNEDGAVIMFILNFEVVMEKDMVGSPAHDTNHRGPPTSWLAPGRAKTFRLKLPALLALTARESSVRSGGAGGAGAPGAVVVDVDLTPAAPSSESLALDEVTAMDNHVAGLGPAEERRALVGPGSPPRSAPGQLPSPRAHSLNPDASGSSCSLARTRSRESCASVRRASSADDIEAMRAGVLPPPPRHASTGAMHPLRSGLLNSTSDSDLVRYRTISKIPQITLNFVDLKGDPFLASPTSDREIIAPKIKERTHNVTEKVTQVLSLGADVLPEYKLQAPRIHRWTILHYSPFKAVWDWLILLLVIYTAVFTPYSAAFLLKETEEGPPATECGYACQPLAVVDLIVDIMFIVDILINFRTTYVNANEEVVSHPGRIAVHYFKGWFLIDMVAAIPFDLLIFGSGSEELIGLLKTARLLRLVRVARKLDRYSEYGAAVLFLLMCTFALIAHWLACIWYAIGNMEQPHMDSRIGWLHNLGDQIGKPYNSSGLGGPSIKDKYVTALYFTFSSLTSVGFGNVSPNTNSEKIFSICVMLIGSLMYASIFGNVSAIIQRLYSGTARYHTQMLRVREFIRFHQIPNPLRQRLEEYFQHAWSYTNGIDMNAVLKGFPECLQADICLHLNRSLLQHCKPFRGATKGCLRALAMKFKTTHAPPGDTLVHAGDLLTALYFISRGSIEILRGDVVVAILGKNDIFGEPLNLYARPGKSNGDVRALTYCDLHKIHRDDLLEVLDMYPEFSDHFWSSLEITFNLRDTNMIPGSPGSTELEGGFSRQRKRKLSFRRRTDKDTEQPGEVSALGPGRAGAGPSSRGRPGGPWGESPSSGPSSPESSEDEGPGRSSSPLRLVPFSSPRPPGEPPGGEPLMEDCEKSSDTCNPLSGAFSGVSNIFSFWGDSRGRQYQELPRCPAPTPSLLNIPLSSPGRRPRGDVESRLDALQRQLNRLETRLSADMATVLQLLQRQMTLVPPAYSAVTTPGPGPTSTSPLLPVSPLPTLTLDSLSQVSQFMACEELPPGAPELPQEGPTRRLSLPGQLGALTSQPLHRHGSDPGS

SMILES | hERG current change (%, negative = inhibition) at 10uM [%]
COc1ccc(/C=C2\SC(=O)N(CC(=O)NC3C=CS(=O)(=O)C3)C2=O)cc1 (centres unmarked) | 15.9
CCN(CC(F)(F)C(F)F)S(=O)(=O)c1ccc(NC(=O)OC)cc1 | -5.93
C=CCOc1nc2c(c(=O)n(Cc3ccc(Cl)c(Cl)c3)c(=O)n2C)n1C | 16.6
Cc1cc(C)n(CC(=O)N/N=C/c2ccco2)n1 | -8.2
CC(=O)Nc1ccc(S(=O)(=O)NNC(=O)c2cccc(Cl)c2)cc1 | 8.3
Cn1cnc(S(=O)(=O)N2CCN(c3ccccc3)CC2)c1 | 17.3
COc1ccccc1O | 15.4
O=C(NCCc1ccccn1)c1cncc(Br)c1 | 11.7
CCN(C(=O)C1CCCCC1)c1nnc(-c2cccnc2)s1.Cl | -8.54
CCCOc1ccc(C2(C(=O)O)CCCC2)cc1 | 6.16
CCOc1ccccc1C(=O)OCC(=O)NCC1CCCCC1 | -7.31
Cc1ccc(C)c(N=Nc2nc3ccccc3n2C)c1 | -26.6
COC(CNc1ncnc2sc(-c3ccccc3)cc12)OC | -24.1
C[N+]1(C)CCC(OC(=O)C(c2ccccc2)c2ccccc2)CC1.[I-] | 1.2
CCS(=O)(=O)NCc1ccc2[nH]c3c(c2c1)CCCC3 | 14.8
CCN1CCN(CCCNC(=O)c2cc3c(=O)[nH]c4ccccc4c3s2)CC1 | -1.25
COc1cc(C=Nc2cccc([N+](=O)[O-])c2C)ccc1OC(C)=O | 12.9
CCOc1ccccc1CNS(=O)(=O)c1ccc2c(c1)oc(=O)n2C | -4.89
Cc1sc2nc(SCCN(C)C)n(-c3ccccc3)c(=O)c2c1-c1ccc(F)cc1 | 0.83
COC(=O)C(NC(=O)c1ccccc1C)(Nc1ncc(S(=O)(=O)c2ccc([N+](=O)[O-])cc2)s1)C(F)(F)F (centres unmarked) | -33
O=C1CSC(c2ccc(F)cc2)N1c1c(F)cccc1F (centres unmarked) | 4.06
COc1ccc(NC(=O)C2CCCN(S(C)(=O)=O)C2)cc1Cl (centres unmarked) | 10.2
COc1ccc(N(CC(=O)Nc2ccc(OC)c(OC)c2)S(=O)(=O)c2ccccc2)cc1Cl | 10.2

SMILES | hERG current change (%, negative = inhibition) at 10uM [%]
CCCc1nc(NC(C)=O)c(C#N)c(-c2ccco2)c1CC | -8.93
CCOC(=O)c1ccc(NC(=O)c2cc(C)nn2-c2ccccc2)cc1 | -7.01
c1ccc(Nc2nc(CSc3ncn[nH]3)cs2)cc1 | 7.09
Cc1ccccc1OCC(=O)OCC(=O)Nc1ccc2c(c1)OCCO2 | 5.44
CCOCc1c(C(=O)Nc2ccc3nc(N4CCOCC4)sc3c2)oc2ccccc12 | -29.4
c1cc(C2N3CCCN2CC3)ccn1 (centres unmarked) | 17.7
O=C(N/N=C/c1ccsc1)c1c[nH]c2ccccc12 | -17.3
COc1ccc(C(C)n2c(C)c3c(C)nnc(C)c3c2C)cc1 (centres unmarked) | -57.9
O=C(CSc1ccc(-c2nc3ccccc3[nH]2)cn1)Nc1ccc(S(=O)(=O)NC2CC2)cc1 | -1.46
CCCOn1nnnc1-c1ccccc1 | 7.37
Cc1c(NC(=O)COC(=O)C23CC4CC(CC(O)(C4)C2)C3)c(=O)n(-c2ccccc2)n1C | 10.1
O=C(CSc1nc(C2CC2)nc2ccccc12)N1c2ccccc2Sc2ccccc21 | 7.02
CC(C)(C)c1ccc(S(=O)(=O)NCc2ccc(C(=O)NCc3ccccn3)cc2)cc1 | -25.8
Cc1sc2nc(SCC(=O)N(C)C)[nH]c(=O)c2c1C | 7.08
Cc1ccc(S(=O)(=O)NC(C)C(=O)OCC(=O)N(C)c2ccccc2)cc1 (centres unmarked) | 1.95
CCOC(=O)C1CCN(C(=O)c2cccc(S(=O)(=O)N3c4ccccc4CC3C)c2)CC1 (centres unmarked) | -35.7
Cc1cc2ccccn2c1C(=O)c1ccc(Cl)cc1 | -6.01
CCN(CC)CCCNC(=O)C1c2ccccc2C(=O)N(CCOC)C1c1ccc(F)cc1 (centres unmarked) | 14.9
CC(=O)c1ccc(N(CC(=O)NC2CCCC2)C(=O)c2csnn2)cc1 | 13.8
CCOc1ccc(-c2ccc3nnc(SCC(=O)NCC4CCCO4)n3n2)cc1 (centres unmarked) | -10.6
O=C(Nc1ccccc1C(F)(F)F)c1ccsc1 | 7.46
CC(Cl)c1cc(-c2ncc(C(F)(F)F)cc2Cl)no1 (centres unmarked) | -6.19
COc1ccccc1CNC(=O)C1Cc2ccccc2C(=O)O1 (centres unmarked) | -2.06

SMILES | hERG current change (%, negative = inhibition) at 10uM [%]
CCCCn1c(=S)[nH]c2ncccc2c1=O | 10.5
CCc1ccc(/C=C/c2c([N+](=O)[O-])c(=O)n(C)c(=O)n2C)cc1 | -34.2
COc1ccc(S(=O)(=O)NCCc2cn3nc(C)c(C)nc3n2)cc1C | 19.2
Cc1cc(OCCCC(=O)Nc2nnc(C3CC3)s2)ccc1Cl | 20.1
CC(C)[C@@H](C(=O)NCC1CCCO1)N1C(=O)N2CCc3c([nH]c4ccccc34)[C@@]2(C)C1=O (some centres unmarked) | -11.8
CC(=O)N(C)c1ccc(NC(=O)C(c2ccccc2)c2ccccc2)cc1 | -0.26
CCOc1ccc(OCCOCCN2CCOCC2)cc1.O=C(O)C(=O)O | 0.827
O=C(C1=C[C@@H]2[C@H]3C(=O)N(c4ccccc4Cl)C(=O)[C@H]3[C@@H](C(=O)c3ccc(Cl)cc3)N2C=C1)c1ccccc1 | 6.86
CS(=O)(=O)N1CCN(c2ccccc2F)CC1 | 9.76
COc1cccc(C2c3[nH]c4ccccc4c3CCN2Cc2cnc(C)s2)c1OC (centres unmarked) | 2.51
Cc1nn(C)c(C)c1CNC(=O)Nc1cccc(Cl)c1C | 1.35
CCCCN(C)CCC(=O)Nc1ccc(Cl)cc1.Cl | -44.6
N/C(=N\OC(=O)CCc1ccccc1)c1ccccc1Cl | 0.158
Cc1cccc(C)c1OCc1nnc(SCC(=O)NCc2ccccc2)o1 | -26.2
C(=N\N1CCN(C2c3ccccc3-c3ccccc32)CC1)/c1cccs1 | 3.72
Cc1onc(-c2ccccc2)c1C(=O)N1CCN(c2ncccc2C(F)(F)F)CC1 | -14.6
C/C(=N/NC(=O)c1cccs1)c1cccc(N)c1 | 33
CCN(CC)c1ccc(S(=O)(=O)N(CC)CC)cc1NC(=O)C1CCCC1 | -13.6
CCCN(Cc1ccccc1)C(=S)Nc1ccc(C(C)=O)cc1 | -12.1
Cc1cc(Nc2cccc([N+](=O)[O-])c2)c2ccccc2n1 | -76.9
O=C(Nc1cccc(F)c1)NC1(C(=O)N2CCOCC2)CCCCC1 | 7.24
COc1ccc(NC(=O)C2CC(=O)N=C(N)S2)cc1 (centres unmarked) | 16.8
O=C(c1cc(-c2ccccc2)nc2ccccc12)N1CCN(c2ccccc2O)CC1 | -10.9

SMILES | hERG current change (%, negative = inhibition) at 10uM [%]
Cc1ccc(C(=O)N/N=C/c2cc(C)n(-c3ccc(Br)cc3)c2C)cc1[N+](=O)[O-] | 14.6
O=C(NCCc1c[nH]c2ccccc12)C1CCN(S(=O)(=O)c2ccccc2)CC1 | -17.1
Cc1ccc(S(=O)(=O)N2CCN(C(=O)Cc3c(F)cccc3Cl)CC2)cc1 | 8.4
COC(=O)c1cn(NC(=O)c2ccccc2[N+](=O)[O-])c(=O)c2ccccc12 | 5.56
CCCCC(=O)N1CCN(c2nc3ccc(OCC)cc3s2)CC1 | -35.5
COc1ccccc1CNS(=O)(=O)c1ccc2c(c1)NC(=O)CO2 | 15.2
Oc1c(C(c2cccc(F)c2)N2CCN(Cc3ccccc3)CC2)sc2ncnn12 (centres unmarked) | -49.5
CC(C)(C)C(=O)N1CCC(O)(CS(=O)(=O)Cc2ccccc2Cl)CC1 | -1.96
Cc1cccc(NC(=S)NCc2cccs2)c1C | 1.28
Cc1ccc(CSCCNC(=O)c2ccc(N(C)S(=O)(=O)c3ccccc3)cc2)cc1 | -19.3
CC(=O)Cn1nnc2sc3c(c2c1=O)CCC(C(C)(C)C)C3 (centres unmarked) | 0.891
O=C(CCS(=O)(=O)Cc1ccccc1)Nc1nc2c(s1)CCCC2 | -2.93
CSCC[C@H](NC(=O)OC(C)(C)C)C(=O)NCC1CCC(C(=O)O)CC1 (some centres unmarked) | -30.3
O=C(Cn1cnc2ccccc2c1=O)NC1CCCc2ccccc21 (centres unmarked) | 6.08
NNC(=O)CN1C(c2ccccc2Br)=Nc2ccc(Br)cc2C1c1ccccc1 (centres unmarked) | -1.49
COc1cc(C(=O)OCC(=O)NCCC2=CCCCC2)ccc1OCC(C)C | 6.73
CC(=O)Nc1ccc(C(=O)CS(=O)(=O)c2ccc(C)cc2)cc1 | -11.5
Cc1cccc2nc(CSc3nc4ccccc4o3)cn12 | -19.6
Cc1ccc(OCC(O)CN2CCN(c3ccc(C)cc3)CC2)cc1 (centres unmarked) | -28
Cc1ccc(Nc2nc3nonc3[nH]c2=O)cc1 | 11.4
